Results on one molecule are retold here after paper doi:10.1101/2025.08.11.669663 (bioRxiv, 2025).

The target in the test is T1, catalase (CAT) (human (endogenous in HeLa), UniProt P04040 1-527).
T1 sequence (looked up): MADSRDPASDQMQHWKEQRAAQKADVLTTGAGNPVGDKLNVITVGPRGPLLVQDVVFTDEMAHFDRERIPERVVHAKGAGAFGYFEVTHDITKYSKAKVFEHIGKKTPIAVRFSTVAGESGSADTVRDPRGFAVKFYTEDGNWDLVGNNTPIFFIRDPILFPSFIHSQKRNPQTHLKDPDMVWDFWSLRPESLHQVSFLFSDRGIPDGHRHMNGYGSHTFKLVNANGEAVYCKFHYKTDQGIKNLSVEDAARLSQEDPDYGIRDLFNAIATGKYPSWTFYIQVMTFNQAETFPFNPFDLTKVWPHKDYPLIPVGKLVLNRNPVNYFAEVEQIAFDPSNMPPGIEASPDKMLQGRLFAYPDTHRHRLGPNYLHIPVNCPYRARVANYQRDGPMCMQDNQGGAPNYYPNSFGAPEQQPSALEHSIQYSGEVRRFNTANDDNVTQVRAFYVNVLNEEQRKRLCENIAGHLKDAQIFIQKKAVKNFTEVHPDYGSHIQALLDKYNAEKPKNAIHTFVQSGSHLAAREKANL
The test can be described thus: co-IP.

B1: MCM2 (natural protein)
chain: not shown
For B1, the “co-precipitated amount after H2O2 treatment, percent of that without H2O2” value was determined as 144%.
